# Hit rate of the full screen: of about 310,000 compounds, about 14,000 (4.5%) showed an effect of 50% or more. Effects have a minus sign here. The list shows a part of the results.
# Biological target: human ether-à-go-go-related gene (hERG) potassium channel (human, UniProt Q12809)
# Assay: primary screen, population patch clamp on CHO cells stably expressing hERG
# 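Also: peak tail current of the secondary pulse compared with the same well before compound.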
# human ether-à-go-go-related gene (hERG) potassium channel, sequence (Q12809 whole entry, looked up): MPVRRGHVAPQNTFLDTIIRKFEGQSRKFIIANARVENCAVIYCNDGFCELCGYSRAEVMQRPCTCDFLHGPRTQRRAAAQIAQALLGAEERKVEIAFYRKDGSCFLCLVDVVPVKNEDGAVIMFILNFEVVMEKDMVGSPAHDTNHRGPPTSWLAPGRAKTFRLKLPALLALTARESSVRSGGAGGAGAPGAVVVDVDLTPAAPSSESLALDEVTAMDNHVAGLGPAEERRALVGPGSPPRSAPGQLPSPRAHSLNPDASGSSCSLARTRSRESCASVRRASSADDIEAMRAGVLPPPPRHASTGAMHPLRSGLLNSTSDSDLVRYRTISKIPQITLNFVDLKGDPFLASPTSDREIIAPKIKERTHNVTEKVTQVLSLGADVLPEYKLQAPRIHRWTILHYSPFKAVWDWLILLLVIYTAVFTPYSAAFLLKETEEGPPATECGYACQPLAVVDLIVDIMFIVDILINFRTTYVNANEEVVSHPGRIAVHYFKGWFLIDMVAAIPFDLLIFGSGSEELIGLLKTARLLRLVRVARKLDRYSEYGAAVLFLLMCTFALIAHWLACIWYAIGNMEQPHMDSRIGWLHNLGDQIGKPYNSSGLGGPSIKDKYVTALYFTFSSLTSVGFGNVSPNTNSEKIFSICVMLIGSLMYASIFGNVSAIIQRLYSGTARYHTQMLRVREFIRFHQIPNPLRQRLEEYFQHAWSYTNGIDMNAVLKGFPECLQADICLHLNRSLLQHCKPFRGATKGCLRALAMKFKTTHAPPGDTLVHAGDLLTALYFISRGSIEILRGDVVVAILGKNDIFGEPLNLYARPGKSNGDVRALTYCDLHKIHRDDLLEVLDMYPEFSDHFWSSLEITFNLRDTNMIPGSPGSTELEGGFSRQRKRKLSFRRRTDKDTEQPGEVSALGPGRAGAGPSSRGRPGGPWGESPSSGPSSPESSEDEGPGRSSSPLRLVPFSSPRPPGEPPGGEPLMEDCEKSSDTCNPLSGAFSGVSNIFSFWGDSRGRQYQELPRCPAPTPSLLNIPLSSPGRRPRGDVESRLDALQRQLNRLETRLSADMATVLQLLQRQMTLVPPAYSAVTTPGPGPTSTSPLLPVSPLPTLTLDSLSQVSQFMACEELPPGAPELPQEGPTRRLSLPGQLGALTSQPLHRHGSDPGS
row,SMILES,"hERG current change (%, negative = inhibition) at 10uM [%]"
1,CC1CCCCC1NC(=O)CSc1nnc(CNC(=O)c2ccccc2)n1C (stereo not shown),-20.1
2,O=C(NC(=S)Nc1ccc(S(=O)(=O)N2CCCC2)cc1)C1CCC1,-5.64
3,COc1ccc(CSc2nc3nc(C)cc(C)n3n2)cc1F,-8.48
4,COC(=O)CCC(=O)NC(=S)Nc1c(C)cccc1C,1.38
5,Cc1ccc(CN2C(=O)C(C)(C)Oc3ccc(C(=O)N4CCCCC4)cc32)cc1,-12.1
6,Br.Cc1csc(=Nc2ccccc2)n1C,-2.07
7,CS(=O)(=O)c1ccccc1C(=O)N(CCc1ccccc1)Cc1ccccc1,-18
8,COCCCNCCCCOc1ccc(C)cc1[N+](=O)[O-].O=C(O)C(=O)O,-26
9,Cc1ccccc1SCC(=O)N1CCN(c2ccc(C(F)(F)F)cn2)CC1,-38
10,CCCCOC(=O)C(C#N)c1nc2ccccc2nc1N1CCN(Cc2ccc3c(c2)OCO3)CC1 (stereo not shown),-7.01
11,CN1CCCCCC1=Nc1ccc([N+](=O)[O-])cc1.Cl,-15.7
12,Cc1ccc(C(=O)NCC(=O)NCC(=O)OCC(=O)c2cccs2)cc1,10.8
13,O=C(N1CCOCC1)N1CCN(S(=O)(=O)c2ccc(Cl)cc2)C1,23.8
14,CN(C)c1ccc(/C=N/NC(=O)CNC(=O)c2ccncc2)cc1,-1.21
15,CCCNC(=O)c1nc(C)c(C)nc1C(=O)Nc1cccc(Cl)c1,-13.7
16,O=Cc1ccc(OC(=O)c2cc(Cl)nc3ccccc23)cc1,18
17,O=C(COC(=O)c1ccccc1O)Nc1cccc2ccccc12,-1.62
18,O=C(O)CC(C(=O)Nc1ccc(Cl)c(Cl)c1)C1CCCO1 (stereo not shown),-4.64
19,O=C(O)C1CCN1C1CCCCC1 (stereo not shown),5.54
20,O=S(=O)(O)c1nc2ccccc2n1Cc1ccc(Cl)cc1Cl,8.08
21,CC(=O)c1ccc(N/C=C/C(=O)c2ccc(Br)cc2)cc1,13.9
22,CC(C)(Cc1ccc(O)cc1)NC(=O)SCc1ccccc1,-10.4

row,SMILES,"hERG current change (%, negative = inhibition) at 10uM [%]"
1,CSc1ccc(CC(=O)N2CCC(n3nccc3NC(=O)C3CC3)CC2)cc1,-8.47
2,CNC(=O)c1ccsc1NC(=O)C1CCN(S(=O)(=O)c2ccc(Cl)s2)CC1,-54.9
3,COc1cc(CC(=O)OCc2cccc([N+](=O)[O-])c2)cc(OC)c1OC,-18.3
4,CCN(CC)c1ccc(C2C3CCCCC3(O)CCN2CC(=O)N2CCCCC2)cc1 (stereo not shown),-2.84
5,COc1ccc(CNC(=O)C2CCC(CNS(=O)(=O)c3ccccc3)CC2)cc1 (stereo not shown),2.42
6,CCc1c(C)sc(NC(=O)c2ccco2)c1C(=O)N1CCCCC1,5.5
7,Cc1ccc(-c2cc(C(=O)NCCN3CCOCC3)c3ccccc3n2)o1,-3.84
8,N#CCCn1cc(/C=C/C(=O)O)c(-c2ccc(F)cc2)n1,13
9,CCOC(=O)c1c(SC)n(-c2ccccc2)c(=S)n(-c2ccccc2)c1=O,17.6
10,CCN(CC(=O)NC(=O)Nc1ccccc1F)Cc1ccccc1,12.4
11,Cc1ccc2oc(=O)n(CC(=O)c3ccc(F)cc3)c2c1,14.9
12,COc1ccc(-c2nnc(SCC#N)o2)cc1,11.3
13,O=C(Nc1ccc(-c2nnc3n2CCCCC3)cc1)c1cc2ccccc2o1,-71.8
14,CC(=O)OC1=C(O)C(=O)c2ccccc2C1=O,-6.46
15,COc1ccc(CN(CC(=O)NCc2ccc(F)cc2)C(=O)CCC(=O)Nc2ccccn2)cc1,-28.2
16,Cc1nn(C(C)(C)C)c(OC(=O)c2cccs2)c1S(=O)(=O)c1ccccc1,0.316
17,O=C(CCCSc1nc2ccccc2[nH]1)Nc1nnc(C2CC2)s1,-1.62
18,C=CCc1cc(Cl)ccc1OCCN(C)C.O=C(O)C(=O)O,-42
19,O=C1[C@H]2[C@@H](c3ccc(F)cc3)N3C(=O)N(c4cccc(Br)c4)C(=O)[C@@]3(Cc3ccccc3)[C@H]2C(=O)N1C1CCCCC1,12
20,CCCSc1cc(Cl)nc(N)n1,-9.06
21,Cc1ccc(NC(=O)CSCC(=O)N2CCN(Cc3ccc4c(c3)OCO4)CC2)cc1,-25.9
22,O=C(Nc1ccccc1)Nc1nc(-c2ccc(F)c(F)c2)cs1,16.3

row,SMILES,"hERG current change (%, negative = inhibition) at 10uM [%]"
1,Cl.ClCCNc1nc2ccc(Cl)cc2[nH]1,11.3
2,COc1ccc(OC)c(NC(=O)CCN2CCN(Cc3ccccc3)CC2)c1.Cl,-32.9
3,Cc1ccc(NC(=O)C(SCC(=O)O)c2ccccc2)cc1C (stereo not shown),-3.86
4,CC(C)C[C@H](NC(=O)[C@@H]1Cc2c([nH]c3ccccc23)C2c3ccccc3C(=O)N21)C(=O)NCC1CCCO1 (stereo partly shown),-14.2
5,O=C(CCn1c(=O)oc2ccccc21)NCCC1=CCCCC1,13.3
6,CN1CCC(N(C)C(=O)COc2ccc(S(=O)(=O)N3CCOCC3)cc2)CC1,15.4
7,O=C1CCCC2=C1C(c1ccccc1)CC(=O)N2c1ccccc1 (stereo not shown),7.02
8,CCCCCc1ccc(-c2cn(CC3CCCCC3)nn2)cc1,19.1
9,Cc1ccc(NC(=O)Cn2nc(C)c(S(=O)(=O)N(C)C)c2C)cc1C,17.1
10,Cc1c(NC(=S)NC(=O)c2ccc(COc3ccccc3)cc2)cccc1C(=O)O,15.9
11,COc1cccc(NC(=O)N2CCCc3ccccc32)c1,-7.3
12,Cc1nn(C)cc1/C=C1\SC(=S)NC1=O,18.4
13,CCCCn1c(O)c(C(CC)=NCCN2CCOCC2)c(=O)[nH]c1=O,-15.3
14,CC(=O)c1ccc(OCC(O)CN2CC(C)OC(C)C2)cc1.Cl (stereo not shown),8.19
15,Cc1ccc(C)n1CCN1CCN(S(=O)(=O)c2ccc(F)cc2F)CC1,5.1
16,Cc1oc(-c2cccs2)nc1CN1CCN(C2CCCC2)C(CCO)C1 (stereo not shown),-11.2
17,C[C@@H](CN=[N+]=[N-])CN1CC[C@H](NC(=O)OCc2ccccc2)CCC1=O,-35.6
18,Cc1ccc(N=Nc2c(C)[nH]n(C(N)=S)c2=O)cc1,16.2
19,COc1cccc(NC(=O)c2cncs2)c1,18.9
20,C=CCn1c(=O)c2ccccc2n2c(SCC(=O)O)nnc12,20.7
21,CCC(C)(C)C1CCC2(CC1)NC(=O)N(CC(=O)N1CCN(C(=O)c3ccco3)CC1)C2=O (stereo not shown),-14.3
22,CC(C)N(Cc1nc(-c2ccccc2)no1)C(=O)CN(C)S(=O)(=O)c1ccc(Br)cc1,-11.6

row,SMILES,"hERG current change (%, negative = inhibition) at 10uM [%]"
1,CCOC(=O)C1(C)NC(c2ccc(N(C)C)cc2)C2C(=O)N(c3ccc(OC)cc3)C(=O)C21 (stereo not shown),4.84
2,CCCc1nc2c(C)ccc(C)c2c(N)c1CC,-62.5
3,CCOC(=O)c1c(C)n(-c2ccc(C)cc2)c2c(C(C(C)=O)C(=O)O)c(Br)c(O)c(O)c12 (stereo not shown),-0.463
4,CC(C)c1nnc(NC(=O)CCC(=O)N2CCN(Cc3ccccc3)CC2)s1,4.17
5,O=C(Nc1ccccc1)c1ccc(Br)c(S(=O)(=O)Nc2cccnc2)c1,14.9
6,CNC(=O)CSc1nnc(-c2ccncc2)n1Cc1ccccc1,9.26
7,CC(C)(C)OC(=O)[C@H](Cc1ccccc1)NC(=O)c1nc[nH]c1C(=O)NC1CC[NH2+]CC1.[Cl-],4.16
8,CCC(C(=O)NCCc1ccc(OC)c(OC)c1)n1nc(C)n2c(cc3occc32)c1=O (stereo not shown),-7.26
9,Cc1ccc2nc(NC(=O)c3cccs3)sc2c1,-2.84
10,CCC(=O)CCC(=O)c1ccc2ccccc2c1,4.48
11,COc1ccc2sc(-c3ccccc3OC)c(-c3ccc(OC)c(F)c3)c2c1,10.8
12,CCN(CC)CCN(C(=O)C1=COCCO1)c1nc2ccc(C)cc2s1.Cl,-78.3
13,CSc1c(CC(=O)Nc2ccccc2Cl)n(Cc2ccccc2)c2ccccc12,8.86
14,COC(=O)N/N=C\c1ccccc1OC/C=C/c1ccccc1,6.71
15,COC(=O)CSc1nnc([C@H](Cc2ccccc2)NC(=O)OC(C)(C)C)o1,-15.8
16,Cc1cc(Cl)ccc1OCC(=O)OCC(=O)N(CC(C)C)c1c(N)n(Cc2ccccc2)c(=O)[nH]c1=O,-4.74
17,Cc1c(C(=O)N2CC3(CC(c4cccc(NC(=O)CC(c5ccccc5)c5ccccc5)c4)=NO3)C[C@@H]2C(N)=O)cc([N+](=O)[O-])cc1[N+](=O)[O-] (stereo partly shown),7.4
18,O=C(O)c1ccc(S(=O)(=O)NC2CCCCC2)cc1,29.4
19,O=C(Nc1ccc2c(c1)CCC2)c1ccc(Br)s1,38.7
20,O=C(/C=C/c1ccccc1)Nc1ccc(CN2CCOCC2)cc1,-62.5
21,O=C1COc2ccc(C(=O)NCc3ccco3)cc2N1,3.07
22,CCC1CCCCN1CCCNC(=O)C(C)n1nc(C)c2sc3ccccc3c2c1=O (stereo not shown),-69.8

# From publication PMC4336329 (PLoS ONE, 2015)
